{"source": "the supplement of paper PMC10338343", "note": "± gives the standard deviation. Only a part is listed here, and it is no random draw.", "data": [{"system": "MIWI (PIWIL1) piRISC loaded with L1MC piRNA (30 nt)", "assay": "pre-steady-state target cleavage rate (min^-1); MIWI and MILI are mouse PIWI proteins and EfPiwi is from a freshwater sponge; tags in brackets are library labels; higher = faster piRNA-guided slicing of the target", "details": "guide: L1MC piRNA 5'p-UAACUAAAUACUAUGCAAGCUGUAGGUCCU; auxiliary factor: none (no GTSF1)", "procedure,_shortened": "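The pre-steady-state cleavage rate came from a burst-and-steady-state fit to pooled data from three Cleave-'n-Seq trials, in which uncleaved targets were sequenced and normalised to depth and to weakly complementary targets. Each reaction held 0.1 nM transcribed, DNA-blocked target RNA library and 1 nM active affinity-purified piRISC carrying one synthetic guide, with or without 500 nM GTSF1 partner protein, in HEPES–potassium acetate buffer at 33 °C for 0–8 or 0–960 min. k3 was capped at 0.0001 min^-1.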", "values": [{"sequence": "UGGACCUACAGCGUGCAUAGUAUUUAGUUA", "pre-steady-state target cleavage rate": "0.0647 ± 0.013"}, {"sequence": "UCCUGCUACAGCAACCAUAGUAUUUUCAAA", "pre-steady-state target cleavage rate": "< 0.0001"}, {"sequence": "ACGAGCUACAGCUUGCAUAGUAUUUAGUUA", "pre-steady-state target cleavage rate": "0.094 ± 0.016"}]}]}
